115 sequences from the BET-seq Pho4 binding data (Le et al. 2018) can be followed below.

This is one part of the list. The energies were worked out here from pooled read counts, against the library average; single values are noisy.

The target of this assay is T1, Pho4 (S. cerevisiae) (UniProt P07270).
T1 sequence: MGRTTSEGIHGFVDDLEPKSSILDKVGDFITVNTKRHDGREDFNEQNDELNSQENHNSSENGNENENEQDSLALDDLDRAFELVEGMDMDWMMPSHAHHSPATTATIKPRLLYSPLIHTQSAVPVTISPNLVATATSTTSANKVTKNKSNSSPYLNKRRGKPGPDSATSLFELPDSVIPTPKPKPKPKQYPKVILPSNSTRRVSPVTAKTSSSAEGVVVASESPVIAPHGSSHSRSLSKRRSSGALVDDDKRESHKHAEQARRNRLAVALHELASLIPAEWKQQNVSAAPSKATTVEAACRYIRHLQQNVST
Briefly: relative binding free energy (BET-seq); higher = weaker binding. The conditions noted are these: reference: library average.
GGAGGCACGTGGCGTG: the “relative binding free energy” value was -0.2 kcal/mol. The same measure for GGCCTCACGTGTTTGT: 0.18 kcal/mol; for TGTAGCACGTGAGAAG: 0.19 kcal/mol; for AAGTTCACGTGTTGGA: 0.3 kcal/mol. The value for GATAGCACGTGGATAG was 0.05 kcal/mol; that for AGGGTCACGTGATGTG was 0.27 kcal/mol. Consider GGTATCACGTGGAAAG, for which the “relative binding free energy” value was found to be 0.28 kcal/mol.

Turning to ATCGGCACGTGGGTTA, the “relative binding free energy” value was -0.22 kcal/mol.

Consider TATGGCACGTGGGGTC, for which the “relative binding free energy” value was -0.29 kcal/mol.

On to GCGGGCACGTGGAGGG, for which the “relative binding free energy” value is -0.16 kcal/mol. The same measure for GGGTGCACGTGTGGAC: 0.18 kcal/mol; for TAGAGCACGTGTGCAT: -0.12 kcal/mol; for TGATGCACGTGTAAAT: 0.24 kcal/mol.

In the case of CTGCACACGTGGAGTG, the “relative binding free energy” value amounted to 0.08 kcal/mol. The same measure for AGTGTCACGTGTGCTG: 0.06 kcal/mol; for GGGGTCACGTGATGTG: 0.36 kcal/mol.

As to AGGCTCACGTGTCGGG, the “relative binding free energy” value is 0.34 kcal/mol. Consider TGATGCACGTGAGATT, for which the “relative binding free energy” value is 0.19 kcal/mol.

Consider TGGATCACGTGGTAGA, for which the “relative binding free energy” value was 0.16 kcal/mol. The same measure for GGGGTCACGTGAATCG: 0.28 kcal/mol; for TGGCGCACGTGCGGTG: -0.07 kcal/mol.

Regarding ACGATCACGTGTGGTT, the “relative binding free energy” value was 0.18 kcal/mol. The same measure for ATTCGCACGTGGGTCA: -0.09 kcal/mol; for ATTAGCACGTGGTCGG: -0.06 kcal/mol; for AGATACACGTGTCGGG: -0.04 kcal/mol. For the sequence GGGATCACGTGAGTTT, the “relative binding free energy” value worked out at 0.43 kcal/mol. TAGGACACGTGGGGTT: the “relative binding free energy” value was -0.01 kcal/mol. The same measure for TTCGGCACGTGAGGTG: 0.16 kcal/mol; for CTATGCACGTGGGGTA: -0.26 kcal/mol; for GGTGGCACGTGGTCAG: -0.13 kcal/mol. The same measure for TGGTCCACGTGGGCGT: -0.19 kcal/mol; for CGTCTCACGTGAGGGT: 0.24 kcal/mol. The same measure for TAAAGCACGTGGGGAG: -0.17 kcal/mol; for ATTTGCACGTGGGTGA: -0.13 kcal/mol.

Regarding AGGTTCACGTGTGGGC, the “relative binding free energy” value amounted to 0.25 kcal/mol. The same measure for AGGTGCACGTGTGCAG: -0.1 kcal/mol; for ATATTCACGTGAGTTG: 0.37 kcal/mol.

For the sequence AAGGACACGTGGTGTT, the “relative binding free energy” value was -0.1 kcal/mol. The value for TAAATCACGTGTCGTT was 0.21 kcal/mol; that for TTCGCCACGTGTTAGG was 0.02 kcal/mol; that for TATGACACGTGCGTGA was -0.06 kcal/mol. The same measure for GAAGTCACGTGGAGTG: 0.22 kcal/mol. The value for ACAGGCACGTGGGAGT was -0.25 kcal/mol; that for GGATCCACGTGGGATT was 0.09 kcal/mol; that for ATGAGCACGTGCGGTC was -0.09 kcal/mol. GAGAGCACGTGTGGCA: the “relative binding free energy” value is -0.06 kcal/mol. The value for AAGTTCACGTGGGGAA was 0.12 kcal/mol; that for CGGTACACGTGTGAGT was 0.22 kcal/mol. The value for AGATTCACGTGGGGTC was 0.28 kcal/mol; that for TAGACCACGTGGTTGT was -0.16 kcal/mol; that for TTTAGCACGTGAGGAT was 0.19 kcal/mol.

For the sequence GCTTGCACGTGGCAGG, the “relative binding free energy” value was -0.2 kcal/mol. With TGAGTCACGTGGGCCG, the “relative binding free energy” value is -0.03 kcal/mol. The same measure for TGATTCACGTGATTTA: 0.28 kcal/mol. The same measure for GTTACCACGTGGTGAG: -0.04 kcal/mol. The value for ATTGACACGTGTCGGA was -0.06 kcal/mol; that for AGTTCCACGTGGTATG was 0.03 kcal/mol; that for AGAATCACGTGGTGTA was 0.09 kcal/mol.

Regarding CGAGGCACGTGTGGTG, the “relative binding free energy” value is -0.06 kcal/mol. The value for TGGTTCACGTGTAGAA was 0.31 kcal/mol; that for GTTGACACGTGAAGGG was 0.34 kcal/mol. The same measure for TGAAGCACGTGTGATA: 0.05 kcal/mol; for ACGTTCACGTGTTGTG: 0.22 kcal/mol. The value for GTACGCACGTGTGTGA was -0.06 kcal/mol; that for GTTTGCACGTGTTCCG was 0.18 kcal/mol.

AGTAGCACGTGGTCTA: the “relative binding free energy” value is -0.06 kcal/mol. The same measure for GGGTGCACGTGATAAA: 0.12 kcal/mol; for AATGTCACGTGGGCTT: 0.04 kcal/mol; for GGGGTCACGTGTTTGG: 0.24 kcal/mol. The same measure for TATATCACGTGATTGG: 0.23 kcal/mol. The value for TTAATCACGTGTAGCT was 0.13 kcal/mol.

Turning to AGTGTCACGTGGTATC, the “relative binding free energy” value amounted to 0.08 kcal/mol. The value for AACTTCACGTGGGTTA was 0.12 kcal/mol; that for TATCGCACGTGGGATG was -0.12 kcal/mol.

Consider TGGTGCACGTGAATAG, for which the “relative binding free energy” value came out at 0.19 kcal/mol.

Turning to CTTTACACGTGAATGG, the “relative binding free energy” value was found to be 0.36 kcal/mol.

In the case of ATTGTCACGTGTATCT, the “relative binding free energy” value was found to be 0.19 kcal/mol. The same measure for AGCTTCACGTGTAGTG: 0.22 kcal/mol. As to GGACGCACGTGAAGGG, the “relative binding free energy” value turned out to be 0.14 kcal/mol. Regarding CGTTGCACGTGAAGGA, the “relative binding free energy” value stood at 0.42 kcal/mol. For TTGGCCACGTGAAGCG, the “relative binding free energy” value was 0.34 kcal/mol. The value for AGTTCCACGTGGGTGT was -0.04 kcal/mol.

In the case of AGGCACACGTGGGCTG, the “relative binding free energy” value is -0.1 kcal/mol.

As for CGTGGCACGTGGAGCG, the “relative binding free energy” value is -0.17 kcal/mol.

Regarding GTAAGCACGTGGGTCG, the “relative binding free energy” value was -0.19 kcal/mol. As to GGTTACACGTGATGGC, the “relative binding free energy” value worked out at 0.28 kcal/mol.

On to ATGATCACGTGGGTGG, for which the “relative binding free energy” value is -0.06 kcal/mol.

Consider AGACGCACGTGGTTTA, for which the “relative binding free energy” value was -0.01 kcal/mol. The same measure for TGGTACACGTGGGACT: 0.1 kcal/mol; for GTGTACACGTGTGTTA: 0.13 kcal/mol.

With TTAATCACGTGTATGA, the “relative binding free energy” value is 0.19 kcal/mol. The value for GGCGTCACGTGAGGGA was 0.22 kcal/mol.

AATTTCACGTGGTAGA: the “relative binding free energy” value was 0.1 kcal/mol.

TTCATCACGTGGGTTG: the “relative binding free energy” value is -0.05 kcal/mol. The value for TTATCCACGTGAGGTG was 0.35 kcal/mol; that for TAGAACACGTGTCGTT was 0.17 kcal/mol. The same measure for TATGGCACGTGGTGCA: -0.28 kcal/mol; for TTCAGCACGTGTTATG: -0.01 kcal/mol. Take GTGTGCACGTGGGGAG: the “relative binding free energy” value is -0.1 kcal/mol. The same measure for TGGAGCACGTGTAAAG: 0.06 kcal/mol; for TTGGGCACGTGGCTGG: -0.18 kcal/mol; for TTCGGCACGTGTAATA: 0.22 kcal/mol. AATAACACGTGGGGGA: the “relative binding free energy” value was -0.24 kcal/mol.

As to TTTATCACGTGGTCGA, the “relative binding free energy” value worked out at 0.07 kcal/mol. The value for TCAGGCACGTGTGTAT was -0.11 kcal/mol; that for TTGAACACGTGCGGGC was 0.29 kcal/mol; that for ATTTCCACGTGATAGG was 0.23 kcal/mol. As to ATATGCACGTGGATTT, the “relative binding free energy” value was 0.07 kcal/mol. The value for CTAGGCACGTGCGGTT was -0.17 kcal/mol; that for GGGTTCACGTGTAGGT was 0.3 kcal/mol; that for ATTGACACGTGAGTGG was 0.16 kcal/mol.

In the case of ATGTTCACGTGTTAGC, the “relative binding free energy” value turned out to be 0.23 kcal/mol. The value for ACGGTCACGTGGGGCG was -0.27 kcal/mol. In the case of CGGTACACGTGGAGTG, the “relative binding free energy” value was -0.02 kcal/mol. The value for AATAGCACGTGTTGGT was -0.11 kcal/mol.
